In all, about 310,000 compounds went through this assay and about 2,200 (0.71%) showed an effect of 50% or more. The effect is printed as a negative number. This is one part of the list.

The target in this experiment is human ether-à-go-go-related gene (hERG) potassium channel (human, UniProt Q12809). The experiment is described as follows: primary screen, population patch clamp on CHO cells stably expressing hERG.
Sequence of human ether-à-go-go-related gene (hERG) potassium channel (Q12809 whole entry, looked up): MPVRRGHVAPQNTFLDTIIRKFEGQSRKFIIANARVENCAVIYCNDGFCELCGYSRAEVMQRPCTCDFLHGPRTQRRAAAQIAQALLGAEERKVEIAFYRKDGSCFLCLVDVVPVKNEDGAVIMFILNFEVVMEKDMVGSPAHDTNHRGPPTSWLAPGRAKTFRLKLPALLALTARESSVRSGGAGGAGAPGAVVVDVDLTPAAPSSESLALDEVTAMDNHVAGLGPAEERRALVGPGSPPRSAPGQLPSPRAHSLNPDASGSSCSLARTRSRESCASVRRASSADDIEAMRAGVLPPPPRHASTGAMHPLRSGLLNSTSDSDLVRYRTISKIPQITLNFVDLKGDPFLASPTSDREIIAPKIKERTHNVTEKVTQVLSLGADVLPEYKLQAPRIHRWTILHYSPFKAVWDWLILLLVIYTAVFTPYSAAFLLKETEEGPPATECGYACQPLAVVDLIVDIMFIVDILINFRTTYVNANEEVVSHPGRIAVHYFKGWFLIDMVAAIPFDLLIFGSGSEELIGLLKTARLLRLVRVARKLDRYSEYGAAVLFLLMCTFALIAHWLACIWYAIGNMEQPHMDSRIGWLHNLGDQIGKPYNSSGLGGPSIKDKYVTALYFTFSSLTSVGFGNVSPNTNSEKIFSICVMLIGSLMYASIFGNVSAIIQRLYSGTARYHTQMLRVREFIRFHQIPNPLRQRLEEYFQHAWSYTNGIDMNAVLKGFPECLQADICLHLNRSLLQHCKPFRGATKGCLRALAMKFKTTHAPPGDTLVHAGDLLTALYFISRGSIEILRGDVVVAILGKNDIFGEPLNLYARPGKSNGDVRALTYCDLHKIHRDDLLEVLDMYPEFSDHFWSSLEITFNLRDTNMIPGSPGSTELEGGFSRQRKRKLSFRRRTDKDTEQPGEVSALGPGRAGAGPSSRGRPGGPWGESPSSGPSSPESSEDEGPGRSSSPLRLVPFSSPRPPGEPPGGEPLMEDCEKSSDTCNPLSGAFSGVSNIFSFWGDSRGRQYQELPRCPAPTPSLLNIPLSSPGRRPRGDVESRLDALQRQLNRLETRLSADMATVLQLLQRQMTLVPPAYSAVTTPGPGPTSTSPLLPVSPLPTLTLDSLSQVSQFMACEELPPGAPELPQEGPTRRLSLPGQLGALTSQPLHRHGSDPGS
As for `CC(=O)c1c(N2CCOCC2)nc(=S)n(-c2ccc([N+](=O)[O-])cc2)c1C`, the “hERG current change (%, negative = inhibition) at 1uM” value is on record as -7.48%.
Regarding `CCCCOc1ccc(N2CC(C(=O)NCCc3ccc(OC)c(OC)c3)CC2=O)cc1` (centres unmarked), the “hERG current change (%, negative = inhibition) at 1uM” value amounted to 11.1%.
With `COc1ccc(C(=O)C2CCN(S(=O)(=O)c3ccc4c(c3)OCCO4)CC2)cc1` the figure was 6.44%; with `CCn1c(SCC(=O)N2CCCC(C)C2)nnc1-c1ccc(S(=O)(=O)N2CCN(C)CC2)cc1` (centres unmarked), 1.55%; with `N=C1/C(=C/c2cccn2CCOc2ccccc2)C(=O)N=C2SC=C(c3ccccc3)N12`, 6.81%.
Turning to `CN(CC(=O)NCc1ccccc1)Cc1cccc(F)c1.O=C(O)C(=O)O`, the “hERG current change (%, negative = inhibition) at 1uM” value amounted to 6.93%.
As to `COc1ccc2c(c1)C(=O)N1[C@H]3c4cc(Br)ccc4OC[C@@H]3[C@H](c3ccccc3)[C@]1(C)C(=O)N2`, the “hERG current change (%, negative = inhibition) at 1uM” value is recorded as 16.4%.
Regarding `CC(C)=CC(=O)N1CCCc2ccccc21`, the “hERG current change (%, negative = inhibition) at 1uM” value was determined as 9.57%.
With `O=C(O)CCCC(=O)OCCCCc1cccs1` the figure was 1.33%.
To `Cc1cc(=O)[nH]c(SCC(=O)Nc2nnc(SCc3ccccc3)s2)n1` belongs 21.6%; to `O=C(O)/C=C\C(=O)Nc1ccccc1C(=O)N1CCN(c2ccc(Cl)cc2)CC1`, 1.1%; to `COc1ccc(-c2ncccc2OC(=O)C23CC4CC(CC(C4)C2)C3)cc1OC.Cl`, 5.56%.
In the case of `O=C(CCN1C(=O)C2CCCCC2C1=O)Nc1ccc(F)c(F)c1F` (centres unmarked), the “hERG current change (%, negative = inhibition) at 1uM” value is recorded as 2.77%.
To `COc1ccc(C)cc1NC(=O)c1ccc(S(=O)(=O)N2CCOCC2)cc1` belongs 9.7%; to `Cc1cccc(N2C(=NC(=O)c3ccccc3)SC3CS(=O)(=O)CC32)c1` (centres unmarked), 15.9%; to `CN1CCN(c2ccc(NC(=O)c3ccccc3Br)cc2)CC1`, 9.75%.
On to `O=C(c1ccc2[nH]c(=O)c(=O)[nH]c2c1)N1CCN(Cc2ccccc2)CC1`, for which the “hERG current change (%, negative = inhibition) at 1uM” value was determined as 15.4%.
Consider `Cc1ccccc1NC1=C(Cl)C(=O)OC1OC(=O)c1ccccc1C` (centres unmarked), for which the “hERG current change (%, negative = inhibition) at 1uM” value is listed as 9.9%.
To `CC(CNC(=O)CCn1ccc2cc(S(=O)(=O)N3CCCC3)ccc21)c1ccccc1` (centres unmarked) belongs 6.46%; to `CC(=O)c1c(C)[nH]c(-c2ccccc2)nc1=S`, 13.3%; to `CC(C)(C)C(=O)COC(=O)c1ccc(N)c([N+](=O)[O-])c1`, 8.06%.
For the compound `CCCCOCCCNC(=O)c1ccc2c(c1)OCO2`, the “hERG current change (%, negative = inhibition) at 1uM” value is -3.39%.
With `CCCCn1c(N)c(N(CCOC)C(=O)COC(=O)C(C)Oc2ccc(Cl)cc2)c(=O)[nH]c1=O` (centres unmarked), the “hERG current change (%, negative = inhibition) at 1uM” value is 15%.
With `CNC(=S)Nn1cnc2ccccc21` the figure was -1.41%; with `CCOc1ccc(S(=O)(=O)Nc2ccc3c(c2)n(C)c(=O)n3C)cc1`, 14.4%.
Consider `COC(=O)c1sc(N)c(C(=O)OC)c1CSc1nc2sc3c(c2c(=O)n1C)CCC3`, for which the “hERG current change (%, negative = inhibition) at 1uM” value is recorded as -3.33%.
Turning to `COc1ccc2c(c1)c(C(C)=O)c(C)n2-c1ccccc1`, the “hERG current change (%, negative = inhibition) at 1uM” value amounted to 4.05%.
To `OCC[C@H]1C[C@H](O)[C@@H](O)[C@]2(OCc3ccccc32)O1` belongs 17%; to `Cc1cc(C)cc(NC(=O)N2CCN(Cc3ccc4c(c3)OCO4)CC2)c1`, -25.7%.
Regarding `COC(=O)c1sccc1NC(=S)Nc1cccc(F)c1`, the “hERG current change (%, negative = inhibition) at 1uM” value is 14.3%.
Take `O=S(=O)(NCc1nc(-c2ccccc2)no1)c1ccc(F)cc1`: the “hERG current change (%, negative = inhibition) at 1uM” value is 6.88%.
In the case of `O=C(O)c1ccccc1O`, the “hERG current change (%, negative = inhibition) at 1uM” value came out at 13.2%.
With `CCOC(=O)C1=C(COC(=O)C2(C)CC2(Cl)Cl)NC(=O)NC1c1ccccc1` (centres unmarked) the figure was 12.3%; with `C=CCn1c(SCC(=O)Nc2cc(C)on2)nc2sc(C)c(C)c2c1=O`, 1.37%; with `CCN1CCN(C(=O)c2cc3c(=O)n(C)c4ccccc4c3n2C)CC1`, 8.54%.
To `Cc1cc(C)n(CC(C)(O)c2ccccc2)n1` (centres unmarked) belongs 12.8%; to `O=[N+]([O-])c1ccc(N2CCOCC2)cc1NCCCO`, 18%; to `CCCC(=O)Nc1cccc(S(=O)(=O)N(C)c2ccccc2)c1`, 4.57%.
To `Cc1ccc(C)c(C(=O)CN2C(=O)CCC2=O)c1` belongs 7.07%; to `CS(=O)(=O)N(CC(=O)NC1CCCC1)C1CCCCC1`, 8.35%; to `O=C(Cn1cc(C(=O)c2ccccc2F)c2ccccc21)NCc1ccco1`, 10.9%.
Turning to `O=C(Oc1cccc(Nc2ncnc3ccccc23)c1)c1ccccc1Cl`, the “hERG current change (%, negative = inhibition) at 1uM” value came to 14.7%.
To `O=C(Nc1ccc(C(=O)OC2CCCCC2)cc1)c1ccncc1` belongs 11.7%.
With `CC1CN(C(=O)CCC(=O)NCc2ccc(F)cc2)c2ccccc2S1` (centres unmarked) the figure was 3.73%.

For the origin of these results see paper PMC4336329 (PLoS ONE, 2015).
